# The other results are listed elsewhere or left out. At the low end of the ranking the order means little.
# Test system: T1, GST-NbGlk1(82-244)
# T1 sequence: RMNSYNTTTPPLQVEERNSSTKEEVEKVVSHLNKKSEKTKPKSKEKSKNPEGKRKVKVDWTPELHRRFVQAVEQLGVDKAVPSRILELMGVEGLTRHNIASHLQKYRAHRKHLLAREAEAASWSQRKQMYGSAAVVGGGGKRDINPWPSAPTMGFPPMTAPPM
# Test: protein-binding microarray;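 note: rank-based score ranging −0.5 to +0.5 with E above 0.45 taken as significant binding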
# Conditions: NbGlk1 is a Golden2-like transcription factor of Nicotiana benthamiana; high values mean tight binding; most listed sequences are background and not binding sites; double strand, one strand shown
row,Sequence,binding signal [E-score]
1,ACGCTCCG,-0.0827
2,AAGAGATA,0.309
3,AACACAAA,0.0878
4,AGGGGCCA,-0.233
5,AATCGTCA,0.228
6,AGTAGTAA,0.167
7,AAACCCAG,-0.0184
8,AGACTATG,-0.0479
9,ATGGGGCG,-0.136
10,CAAGTAGC,-0.173
11,AAACTTTG,-0.00575
12,AATCTCTG,0.374
13,AGGGAACC,-0.278
14,AAAGATCA,0.157
15,AGAAGGAA,-0.0248
16,AGCCCCAG,-0.229
17,AATTTCGC,0.195
18,CAACAGTG,-0.125
19,AATGCTAA,0.13
20,ACCAGGTC,-0.366
21,AGGGCCAA,-0.248
22,CAAGAGTA,-0.0182

row,Sequence,binding signal [E-score]
1,AGTCTGTC,-0.222
2,AGTAACCA,0.0637
3,ATGTAGTA,0.223
4,AAGCTGAA,-0.219
5,CAAACTCA,0.0525
6,ACCGTCAA,-0.267
7,ATCCGTCG,0.181
8,AGAGGCGC,-0.325
9,AAAGTGGT,-0.00884
10,AGTTCGTG,-0.139
11,AAACTAGA,0.166
12,AGACAGAT,0.222
13,CAAAGAAC,0.0614
14,ACCAACCT,-0.0513
15,AAAGAGTA,0.0369
16,ACCTTAGT,-0.068
17,AGCAGTTG,0.0451
18,CACTCCGG,-0.209
19,AACCCTTG,-0.159
20,AGCGCTTA,-0.211
21,AAGAAATG,-0.069
22,ACGTAGGA,-0.0304

row,Sequence,binding signal [E-score]
1,AACTGGAT,0.173
2,AGTGCGGC,-0.259
3,ATAAGGTA,0.0501
4,CAGATCCC,0.266
5,AAATGCCG,0.0595
6,AATGAACG,-0.111
7,CACGACCG,-0.093
8,AAGTTTGA,0.129
9,CACCGATC,0.0752
10,ACACCATG,-0.0506
11,ATGTGATC,0.226
12,CACTCAAG,0.0504
13,ACCGTAAA,-0.0262
14,ACTCAGGA,-0.00097
15,AAGCCGGA,-0.173
16,AACCCACT,-0.276
17,ACTCGCCT,-0.16
18,ACCGCGAC,-0.156
19,ACACGGCC,-0.186
20,ACTTTAGC,-0.0567
21,ACCCCCCT,-0.324
22,AAAACCAC,-0.0315

row,Sequence,binding signal [E-score]
1,AAAGATAT,0.342
2,AACCAACC,-0.103
3,ACCCTCCA,-0.316
4,ACGACTTG,-0.144
5,AAACACTT,0.029
6,CACGATAG,0.0221
7,AATCTGAC,0.417
8,AGTCAGCG,-0.127
9,AATGAATT,0.0979
10,ACGAACGG,-0.114
11,CAATACAA,0.00418
12,ATTCCTGC,0.176
13,ATGATATC,0.422
14,AGCTAAGA,-0.0984
15,ATTGCTCC,0.109
16,ACGCTTTG,-0.127
17,ACATCCAG,0.139
18,AACAGGAA,0.207
19,ACACACAA,-0.0075
20,ACTCAGTG,-0.0814

# — article PMC5836133
